# In the supplement of paper PMC9174493:
# The list shows a part of the results. Single values of this set are uncertain. Values with irradiation are relative to irradiated vehicle.
# Tested on: A549-Dual
# Assay: NF-kB reporter (SEAP) activity, viability-corrected, relative to vehicle (fold change vs vehicle); higher = more activation of STING-IRF / NF-kB immune response reporter
# Conditions: 10 µM; irradiation: 8 Gy/4 fr
# 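Further: viability correction based on the alamar blue assay, with concentrations leaving 10% survival or less dropped.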
row,Structure (SMILES),NF-kB reporter
1,O=C1OC(C(O)CO)C(O)C1O.[NaH] (stereo unspecified) [Sodium ascorbate],0.733
2,CCN1CCN(C(=O)NC(C(=O)NC2C(=O)N3C2SC(C)(C)C3C(=O)[O-])c2ccccc2)C(=O)C1=O.[Na+] (stereo unspecified) [Piperacillin Sodium],0.867
3,O=c1cc(-c2ccc(O)c(O)c2)oc2cc(O)cc(O)c12 [Luteolin],1.1
4,CCC(=O)OC1C(OC2C(C)C(OC3CC(C)(OC)C(O)C(C)O3)C(C)C(=O)OC(CC)C(C)(O)C(O)C(C)C(=O)C(C)CC2(C)O)OC(C)CC1N(C)C.CCCCCCCCCCCCOS(=O)(=O)O (stereo unspecified) [Erythromycin estolate],1.51
5,CN1CCN2c3ccccc3Cc3ccccc3C2C1.Cl (stereo unspecified) [Mianserin HCl],0.654
6,CCN(CC)CCNC(=O)c1cc(Cl)c(N)cc1OC.Cl [Metoclopramide HCl],0.812
7,Cl.N=C(N)NC(=N)NCCc1ccccc1 [Phenformin HCl],0.503
8,C=C1CCC(O)C/C1=C/C=C1\CCCC2(C)C1CCC2C(C)/C=C/C(C)C(C)C (stereo unspecified) [Vitamin D2],0.443
9,CCN(CC)CCOc1ccc(/C(=C(\Cl)c2ccccc2)c2ccccc2)cc1.O=C(O)CC(O)(CC(=O)O)C(=O)O [Clomifene citrate],0.744
10,C#CC1(O)CCC2C3CCc4cc(OC5CCCC5)ccc4C3CCC21C (stereo unspecified) [Quinestrol],0.838
11,NCCC(O)C(=O)NC1CC(N)C(OC2OC(CN)C(O)C(O)C2O)C(O)C1OC1OC(CO)C(O)C(N)C1O.O (stereo unspecified) [Amikacin hydrate],0.791
